According to the supplement of paper PMC4967469:
A lower IC50 marks a more sensitive line; fits outside the tested doses are given as limits. AUC, from the same fit, is the share of area under the viability curve across the 256-fold dose range; the more sensitive the line, the further below 1. Any top dose called inferred was calculated from the reported fits. For some of these results: Where an entry number is given, a second screen of the drug exists; the two often differ.

Columns and labels:
Experiment in all cases: Viability of human cancer cell lines after 72 h of drug (GDSC screen)
XMD11-85h = compound: COc1cc(C(=O)NC2CCN(C)CC2)ccc1Nc1ncc2c(n1)N(C1CCCC1)CCC(=O)N2C(C)C [XMD11-85h]; settings: top dose 10 µM; top dose inferred
Procedure: (§1)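 Human cancer cell lines in 384-well plates, medium with 10% serum, drug for 72 h over a 256-fold dose range (nine 2-fold or five 4-fold steps up to the top dose). Adherent lines were fixed and stained with the nucleic acid dye Syto60, suspension lines read with resazurin; signal relative to control wells, capped at 0 and 100%. One two-parameter sigmoid per drug and line, fitted in a mixed model over all curves with the slope shared within a line.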

BMN-673 = compound: Cn1ncnc1[C@H]1c2n[nH]c(=O)c3cc(F)cc(c23)N[C@@H]1c1ccc(F)cc1 [BMN-673]; settings: top dose 10 µM; top dose inferred
Procedure: as §1

AZD6482 = compound: Cc1cc([C@@H](C)Nc2ccccc2C(=O)O)c2nc(N3CCOCC3)cc(=O)n2c1 [AZD6482]
Procedure: as §1

[1] = top dose 5 µM, screen: GDSC drug entry 1066, top dose inferred
[2] = top dose 5.12 µM, screen: GDSC drug entry 156

Cell Line	AUC (XMD11-85h)	IC50 (XMD11-85h) [µM]	AUC (BMN-673)	IC50 (BMN-673) [µM]	AUC (AZD6482; [1])	IC50 (AZD6482; [1]) [µM]	AUC (AZD6482; [2])	IC50 (AZD6482; [2]) [µM]
L-428 (Hodgkin lymphoma, suspension)	0.992	> 10	0.945	> 10	0.993	> 5	0.977	> 5.12
TE-4 (oesophagus, adherent)	0.981	> 10	0.871	9.37	0.985	> 5	–	–
SK-MEL-5 (melanoma, adherent)	0.954	> 10	0.851	> 10	0.868	> 5	–	–
NCI-H2087 (lung adenocarcinoma, semi-adherent)	0.976	> 10	0.754	3.6	0.941	> 5	0.85	4.36
SU8686 (pancreas, adherent)	0.955	> 10	0.877	> 10	0.977	> 5	0.963	> 5.12
LB996-RCC (kidney, adherent)	0.932	> 10	0.699	2.51	0.53	0.382	0.924	> 5.12
G-401 (kidney, adherent)	0.932	> 10	0.723	2.89	0.935	> 5	0.832	3.73
RERF-LC-KJ (lung adenocarcinoma, adherent)	0.891	> 10	0.93	> 10	0.955	> 5	0.936	> 5.12
KYSE-220 (oesophagus, adherent)	0.984	> 10	0.815	5.9	0.925	> 5	0.929	> 5.12
PCI-30 (head and neck, adherent)	0.959	> 10	0.735	3.47	0.937	> 5	0.947	> 5.12
SW1573 (lung adenocarcinoma, adherent)	0.967	> 10	0.679	2.36	0.81	3.83	0.895	> 5.12
SW626 (ovary, adherent)	0.949	> 10	0.916	> 10	0.974	> 5	0.908	> 5.12
RCM-1 (large intestine, adherent)	0.979	> 10	0.981	> 10	0.863	> 5	0.982	> 5.12
HCC1954 (breast, adherent)	0.982	> 10	0.952	> 10	0.822	3.57	0.822	3.66
RL95-2 (endometrium, adherent)	0.932	> 10	0.847	7.22	–	–	0.917	> 5.12
SBC-3 (small cell lung carcinoma, adherent)	0.94	> 10	0.712	2.32	0.973	> 5	0.914	> 5.12
NCC010 (kidney, adherent)	0.983	> 10	0.74	3.21	0.957	> 5	–	–
TOV-21G (ovary, adherent)	0.98	> 10	0.356	0.24	0.865	> 5	0.985	> 5.12
H2461 (mesothelioma, adherent)	0.903	> 10	0.588	1.15	0.978	> 5	0.977	> 5.12
PANC-02-03 (pancreas, adherent)	0.931	> 10	0.913	> 10	0.879	> 5	0.924	> 5.12
WM1552C (melanoma, adherent)	0.926	> 10	0.936	> 10	–	–	0.849	3.89
LXF-289 (lung adenocarcinoma, adherent)	0.831	6.18	0.724	2.67	0.789	2.17	0.674	0.967

Cell Line	AUC (XMD11-85h)	IC50 (XMD11-85h) [µM]	AUC (BMN-673)	IC50 (BMN-673) [µM]	AUC (AZD6482; [1])	IC50 (AZD6482; [1]) [µM]	AUC (AZD6482; [2])	IC50 (AZD6482; [2]) [µM]
BT-474 (breast, adherent)	0.958	> 10	0.96	> 10	0.904	> 5	0.917	> 5.12
NCI-H226 (lung squamous cell carcinoma, adherent)	0.941	> 10	0.896	> 10	0.953	> 5	0.954	> 5.12
KYSE-410 (oesophagus, adherent)	0.914	> 10	0.861	9.37	0.985	> 5	0.978	> 5.12
KURAMOCHI (ovary, adherent)	0.948	> 10	0.884	> 10	0.899	> 5	0.382	0.144
VAL (B-cell lymphoma, suspension)	0.945	> 10	0.931	> 10	0.865	4.42	0.883	> 5.12
GP5d (large intestine, adherent)	0.972	> 10	0.92	> 10	0.986	> 5	0.985	> 5.12
PCI-4B (head and neck, adherent)	0.956	> 10	0.413	0.367	0.91	> 5	0.923	> 5.12
YH-13 (glioma, adherent)	0.953	> 10	0.924	> 10	0.746	1.67	–	–
MDA-MB-415 (breast, adherent)	0.976	> 10	0.948	> 10	0.746	–	0.441	0.21
NCI-H2122 (lung adenocarcinoma, adherent)	0.987	> 10	0.798	4.43	0.989	> 5	0.973	> 5.12
IST-MES1 (mesothelioma, adherent)	0.915	> 10	0.857	8.24	0.944	> 5	0.94	> 5.12
LB771-HNC (head and neck, adherent)	0.948	> 10	0.909	> 10	0.936	> 5	0.929	> 5.12
ABC-1 (lung adenocarcinoma, adherent)	0.958	> 10	0.79	5.51	0.963	> 5	0.926	> 5.12
NB14 (neuroblastoma, adherent)	0.985	> 10	0.938	> 10	0.892	> 5	0.892	> 5.12
CS1 (bone, adherent)	0.98	> 10	0.789	5	0.953	> 5	0.832	3.82
HCC1419 (breast, adherent)	0.969	> 10	0.971	> 10	0.918	> 5	0.94	> 5.12
OVKATE (ovary, adherent)	0.965	> 10	0.896	> 10	0.972	> 5	0.922	> 5.12
HuP-T3 (pancreas, adherent)	0.942	> 10	0.91	> 10	0.907	> 5	0.967	> 5.12
NCI-H1563 (lung adenocarcinoma, adherent)	0.956	> 10	0.922	> 10	0.93	> 5	0.902	> 5.12
MN-60 (B-cell leukaemia, suspension)	0.924	> 10	0.909	> 10	0.988	> 5	0.875	> 5.12
SW48 (large intestine, adherent)	0.908	> 10	0.633	1.45	0.938	> 5	0.941	> 5.12
BE-13 (lymphoblastic leukaemia, suspension)	0.902	> 10	0.95	> 10	0.937	> 5	0.987	> 5.12

Cell Line	AUC (XMD11-85h)	IC50 (XMD11-85h) [µM]	AUC (BMN-673)	IC50 (BMN-673) [µM]	AUC (AZD6482; [1])	IC50 (AZD6482; [1]) [µM]	AUC (AZD6482; [2])	IC50 (AZD6482; [2]) [µM]
OE21 (oesophagus, adherent)	0.841	> 10	0.879	> 10	0.978	> 5	0.93	> 5.12
SK-N-SH (neuroblastoma, adherent)	0.958	> 10	0.314	0.19	0.929	> 5	0.768	1.9
NUGC-4 (stomach, adherent)	0.923	> 10	0.79	4.45	0.977	> 5	0.988	> 5.12
BHT-101 (thyroid, adherent)	0.814	5.65	0.751	3.39	0.648	0.814	0.898	> 5.12
HCT-15 (large intestine, adherent)	0.985	> 10	0.925	> 10	0.926	> 5	0.977	> 5.12
DOK (head and neck, adherent)	0.91	> 10	0.743	4.53	0.669	1.17	0.738	2.21
K5 (thyroid, adherent)	0.964	> 10	0.523	0.721	0.864	4.07	0.892	> 5.12
STS-0421 (soft tissue, adherent)	0.895	> 10	0.598	1.21	0.884	> 5	0.925	> 5.12
H2369 (mesothelioma, adherent)	0.972	> 10	0.819	5.94	0.938	> 5	0.504	0.328
RPMI-7951 (melanoma, adherent)	0.972	> 10	0.768	3.63	0.895	> 5	0.897	> 5.12
Hs766T (pancreas, adherent)	0.961	> 10	0.953	> 10	0.844	> 5	0.869	> 5.12
D-423MG (glioma, adherent)	0.977	> 10	0.79	5.58	0.722	1.56	–	–
OVTOKO (ovary, adherent)	0.864	> 10	0.866	> 10	0.698	1.33	0.726	1.71
OV-56 (ovary, adherent)	0.98	> 10	0.899	> 10	0.914	> 5	–	–
SK-MEL-28 (melanoma, adherent)	0.953	> 10	0.957	> 10	–	–	0.931	> 5.12
PCI-6A (head and neck, adherent)	0.979	> 10	0.889	> 10	0.942	> 5	0.983	> 5.12
Hs683 (glioma, adherent)	0.987	> 10	0.826	6.16	0.942	> 5	0.829	3.22
MES-SA (uterus, adherent)	0.894	8.91	0.856	6.26	0.985	> 5	0.932	> 5.12
451Lu (melanoma, adherent)	0.974	> 10	0.878	9.36	0.9	> 5	0.94	> 5.12
SF268 (glioma, adherent)	0.97	> 10	0.654	1.73	0.915	> 5	0.862	4.95
